In all, about 370,000 compounds went through this assay and about 150 (0.041%) were called active. The shares of active, inactive and inconclusive entries below differ from those in the screen. Calls follow the shape of the dose curve; as a rule, active = well fitted inhibition curve with a large enough effect; inconclusive = small, poorly fitted or top-dose-only effect; inactive = flat fitted curve, though single readings scatter. No potency is given beside an inconclusive call; the fits are too rough.
These compounds were tested against Beta-lactamase (Escherichia coli (strain K12)) (UniProt P00811) (assay: qHTS Inhibitors of AmpC Beta-Lactamase (assay with detergent)). Conditions: AmpC hydrolysis of nitrocefin, absorbance 480 nm, 0.01% Triton; activity change, negative = inhibition: at 114 µM (top of the series).
Sequence of UniProt P00811 (P00811 whole entry, looked up): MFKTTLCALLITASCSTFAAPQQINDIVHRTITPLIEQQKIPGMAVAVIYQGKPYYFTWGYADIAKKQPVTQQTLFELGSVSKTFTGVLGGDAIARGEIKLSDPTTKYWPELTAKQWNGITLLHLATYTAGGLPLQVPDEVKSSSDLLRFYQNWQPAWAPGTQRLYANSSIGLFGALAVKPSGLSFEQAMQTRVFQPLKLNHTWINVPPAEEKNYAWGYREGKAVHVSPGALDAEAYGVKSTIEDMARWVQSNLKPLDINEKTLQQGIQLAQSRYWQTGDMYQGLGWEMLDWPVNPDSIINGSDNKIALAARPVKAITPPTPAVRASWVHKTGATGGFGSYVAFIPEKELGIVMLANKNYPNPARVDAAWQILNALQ
Summary of the method: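 AmpC (5.3 nM in the dispensed reagent) in 20 mM phosphate pH 7.0 with 0.01% (detergent screen) or 0.0001% Triton X-100 was preincubated with compounds for 15 min at room temperature. Nitrocefin was then added from an 800 uM solution, and hydrolysis was followed at 480 nm.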
CC(=O)N1CCc2[nH]c3ccc(C)cc3c2C1 was tested, and the Potency was inconclusive [inhibitor, partial curve]. In the case of Cc1ccc2c(c1)C1CN(C)CCC1N2S(=O)(=O)c1ccccc1F (stereo not given), the Potency is reported as inconclusive [inhibitor, full curve, poor fit]. For Cc1cccc(NC(=O)CNC(=O)c2cccc(-n3cccc3)c2)c1C, the Potency was inconclusive [inhibitor, full curve]. With Cc1nc2ccccc2n1-c1ccccc1 the Potency was inconclusive [inhibitor, full curve, poor fit]. CCOc1ccc(NC(=O)c2ccco2)cc1 was tested, and the “activity change, negative = inhibition” value was inactive: -3.82%. CCC(C)C(NC(=O)c1ccccc1NC(=O)c1ccc(OC)cc1)C(=O)NCc1ccco1 (stereo not given) was tested, and the “activity change, negative = inhibition” value was inactive: 5.11%. Cn1c(CC(=O)Nc2ccccc2F)nnc1SCC(=O)Nc1nccs1 was tested, and the “activity change, negative = inhibition” value was inactive: -0.181%. For Cc1ccc(NC(=O)N2CCN(C(=O)c3ccco3)CC2)cc1Cl, the “activity change, negative = inhibition” value was inactive: -1.77%. For O=C(CCCn1c(SCc2cccc(F)c2)nc2ccccc2c1=O)NCC1CCCO1 (stereo not given), the Potency was inconclusive [inhibitor, single point]. CCN(CC)S(=O)(=O)c1cccc(NC(=O)COc2ccc(F)cc2Br)c1 was tested, and the Potency was inconclusive [inhibitor, single point]. O=C(Nc1ccc(N2CCOCC2)cc1)c1ccc(Cl)nc1 was tested, and the “activity change, negative = inhibition” value was inactive: -5.57%. In the case of CCOc1ccc(CCNC(=O)c2cc3c(s2)CS(=O)(=O)C3)cc1OCC, the “activity change, negative = inhibition” value is reported as inactive: -1.06%. Cc1nc2ccc(NC(=O)c3ccc(Cl)c([N+](=O)[O-])c3)cc2s1 was tested, and the “activity change, negative = inhibition” value was inactive: -2.72%. Cc1ccc(NC(Cc2cc(C)no2)c2ccccc2)cc1 (stereo not given) was tested, and the Potency was inconclusive [inhibitor, full curve, poor fit]. CCCCN1C(=O)c2ccc(C(=O)NCc3ccco3)cc2C1=O was tested, and the “activity change, negative = inhibition” value was inactive: 5.65%. In the case of CCCc1cc(=O)oc2c(C)c(OCC(=O)N3CCC(C(=O)O)CC3)ccc12, the Potency is reported as inconclusive [inhibitor, partial curve]. COc1cc2c(cc1OC)/C(=C/C(=O)c1ccc(C)cc1)NCC2 was tested, and the Potency was inconclusive [inhibitor, full curve, poor fit]. In the case of CCOc1ccc(NC(=O)C(C)N2C(=O)c3ccccc3S2(=O)=O)cc1 (stereo not given), the Potency is reported as inconclusive [inhibitor, full curve, poor fit]. CNc1ncc(C(=O)c2ccc(Cl)cc2)s1 was tested, and the “activity change, negative = inhibition” value was inactive: -17.8%. For CCCCN(C(=O)CSc1nnnn1-c1ccccc1OC)C1CCS(=O)(=O)C1 (stereo not given), the Potency was inconclusive [inhibitor, full curve]. With COc1ccc(C2(C(=O)NCCCN(C)C)CCOCC2)cc1 the Potency was inconclusive [inhibitor, partial curve]. With C=C[C@H]1CN2CC[C@H]1C[C@H]2[C@H](O)c1ccnc2ccccc12 the Potency was inconclusive [inhibitor, full curve, poor fit]. For COc1ccc(C2/C=C\CN(C(=O)c3ccc(C)cc3)CC(=O)N2Cc2ccc(F)cc2)cc1 (stereo not given), the “activity change, negative = inhibition” value was inactive: -3.54%. In the case of Cc1ccc(C2c3[nH]c4ccccc4c3C[C@H]3C(=O)N(c4ccccc4C(=O)N4CCC[C@H]4C(=O)O)C(=O)N23)cc1 (stereo not given in full), the Potency is reported as inconclusive [inhibitor, partial curve]. O=C(C1=C[C@@H](c2ccc(C(F)(F)F)cc2)C[C@@H](OCc2ccc(CO)cc2)O1)N1CCN(Cc2ccc3c(c2)OCO3)CC1 was tested, and the “activity change, negative = inhibition” value was inactive: 9.35%. CCCCN(CC)CCCNC(=O)Cn1nc(Cc2ccncc2)c2ccccc2c1=O was tested, and the Potency was inconclusive [inhibitor, full curve]. O=C(COc1ccccc1Cl)Nc1ccccc1C(=O)N1CCCCC1 was tested, and the “activity change, negative = inhibition” value was inactive: 0.959%. For Cc1cc(O)c(C(C)C)cc1NS(=O)(=O)c1ccccc1, the Potency was inconclusive [inhibitor, full curve, poor fit]. For COc1ccccc1C1C(C(N)=O)=C(C)Nc2nc(-c3ccc(Cl)cc3)nn21 (stereo not given), the Potency was inconclusive [inhibitor, full curve, poor fit]. For O=C(Nc1c(F)cc(F)cc1Br)c1cc(-c2ccccc2)on1, the Potency was inconclusive [inhibitor, partial curve, poor fit]. For CCOc1ccc(/C=N/NC(=O)c2c(C)n(C)c3ccc(OC)cc23)cc1, the “activity change, negative = inhibition” value was inactive: -2.51%. CCc1nnc(NC(=O)C2CCN(c3nc(C)cc(C)n3)CC2)s1 was tested, and the Potency was inconclusive [inhibitor, partial curve]. For CC1(C)Cc2ccccc2C(NNC(=O)c2cccnc2)=N1, the “activity change, negative = inhibition” value was inactive: -7.75%. In the case of O=C(Nc1ccc(Cl)cn1)c1ccccc1[N+](=O)[O-], the Potency is reported as inconclusive [inhibitor, single point]. With Cc1ccc(C)c(C(=O)CN2C3=NCCCN3c3ccccc32)c1 the Potency was inconclusive [inhibitor, partial curve]. In the case of CNC(=O)C1CCN(S(=O)(=O)c2c(C)noc2/C=C/c2ccc(C)cc2)CC1, the “activity change, negative = inhibition” value is reported as inactive: -7.23%. COC(=O)C1C(=O)C(C(=O)c2ccc([N+](=O)[O-])cc2)C(=O)CC1(C)C (stereo not given) was tested, and the Potency was inconclusive [inhibitor, partial curve, poor fit]. For COCCCN(C(=O)C(C)Oc1ccc(Br)cc1)c1c(N)n(Cc2ccccc2)c(=O)[nH]c1=O (stereo not given), the Potency was inconclusive [inhibitor, single point]. O/C(=C\c1ccc2ccccc2n1)c1ccc(O)cc1O was tested, and the Potency was inconclusive [inhibitor, full curve, poor fit]. CC1CN(C(=O)C(c2ccccc2)c2ccccc2)CC(C)O1 (stereo not given) was tested, and the Potency was inconclusive [inhibitor, full curve, poor fit]. For COc1ccccc1C(=O)NNC1=C(C(=O)C(F)(F)F)CCC1, the “activity change, negative = inhibition” value was inactive: 3.24%. For COc1ccccc1NC(=O)c1c(C)cc(=O)oc1C, the Potency was inconclusive [inhibitor, partial curve, poor fit]. In the case of Cc1ncoc1C(=O)Nc1ccccc1-c1ccccc1, the Potency is reported as inconclusive [inhibitor, partial curve]. For O=C(NNC(=O)c1cc2ccccc2cc1O)NC1CCCCC1, the Potency was inconclusive [inhibitor, full curve, poor fit]. Cc1ccsc1CN(C)C(=O)C(NC(=O)c1cccc(S(=O)(=O)N2CCOCC2)c1)C(C)C (stereo not given) was tested, and the Potency was inconclusive [inhibitor, full curve, poor fit]. In the case of O=C(CSc1ncccn1)NC1CCS(=O)(=O)C1 (stereo not given), the Potency is reported as inconclusive [inhibitor, full curve, poor fit]. O=C(CCN1CCN(C(=O)c2ccccc2)CC1)c1ccc(Br)cc1 was tested, and the “activity change, negative = inhibition” value was inactive: 2.41%. In the case of CCc1ccccc1N(C(=O)c1ccco1)C(C(=O)NC1CCCC1)c1cccnc1 (stereo not given), the “activity change, negative = inhibition” value is reported as inactive: -6.03%. COc1ccc(C(C)(C)C)cc1S(=O)(=O)N1CCN(C)CC1 was tested, and the Potency was inconclusive [inhibitor, single point]. CC1=NCCc2c1[nH]c1cc(O)ccc21 was tested, and the Potency was inconclusive [inhibitor, full curve]. With NS(=O)(=O)c1ccc(NC(=O)COC(=O)C2(c3ccccc3F)CCCC2)cc1 the Potency was inconclusive [inhibitor, full curve]. With Nc1nc(NC(=O)Cc2ccccc2)nn1-c1ccccc1 the Potency was inconclusive [inhibitor, partial curve]. With c1ccc2c(c1)[nH]c1nc(SCCN3CCOCC3)nnc12 the “activity change, negative = inhibition” value was inactive: 0.138%. With CCc1c(C)nc(SCC(=O)Nc2ccc3c(c2)OCCO3)[nH]c1=O the “activity change, negative = inhibition” value was inactive: 0.539%. For CCOC(=O)C1=C(COC(=O)CCOc2cccc(C)c2)NC(=O)NC1C (stereo not given), the Potency was inconclusive [inhibitor, full curve, poor fit]. O=C1c2ccccc2C(=O)c2cc(NC(=O)C3CC3)ccc21 was tested, and the Potency was inconclusive [inhibitor, partial curve, poor fit]. For CC(=O)c1cnc(Nc2cccc(C)c2)s1, the “activity change, negative = inhibition” value was inactive: 2.98%. In the case of COc1cc([N+](=O)[O-])ccc1NC(=O)CC(C)C, the Potency is reported as inconclusive [inhibitor, partial curve, poor fit]. In the case of Cc1occc1C(=O)Nc1ccccc1C#N, the “activity change, negative = inhibition” value is reported as inactive: -9.98%. CN(C(=O)CSc1nnc(-c2ccc(C(C)(C)C)cc2)n1C)C1CCS(=O)(=O)C1 (stereo not given) was tested, and the Potency was inconclusive [inhibitor, partial curve]. With O=C(CN1C(=O)COc2ccccc21)Nc1ccccc1F the “activity change, negative = inhibition” value was inactive: -17.6%. COc1ccc(CNC(=O)Cn2ccc([N+](=O)[O-])n2)cc1OC was tested, and the “activity change, negative = inhibition” value was inactive: -2.66%. With CCC1Nc2ncnc(N3CCN(c4ccccc4)CC3)c2N(Cc2ccc(C)cc2)C1=O (stereo not given) the Potency was inconclusive [inhibitor, partial curve]. For CC1CCC(C(C)C)C(OC(=O)COC(=O)c2cccn2C)C1 (stereo not given), the Potency was inconclusive [inhibitor, full curve, poor fit]. With CNC(=S)NNc1nc(C)cc(C)n1 the Potency was inconclusive [inhibitor, full curve]. COc1ccc(/C(C)=N/NC(=O)C2C3CCCCC32)c(OC)c1 (stereo not given) was tested, and the Potency was inconclusive [inhibitor, partial curve]. NC(=O)c1ccsc1NC(=O)COC(=O)c1ccccc1F was tested, and the “activity change, negative = inhibition” value was inactive: -3.45%. In the case of O=C1OCCN1C(=O)[C@H]1[C@H](c2ccc([N+](=O)[O-])cc2)C(c2cccc(Cl)c2)=NN1c1ccccc1, the Potency is reported as inconclusive [inhibitor, partial curve, poor fit]. Cc1cc(=O)oc2c3c(cc(OCC(=O)Nc4ccc(CCO)cc4)c12)OC(C)(C)CC3 was tested, and the Potency was inconclusive [inhibitor, partial curve, poor fit]. With O=C(COc1ccccc1F)Nc1ccc2nc(SCC(=O)N3CCc4ccccc43)sc2c1 the “activity change, negative = inhibition” value was inactive: 7.41%.

Source: PubChem BioAssay AID485294 (National Center for Advancing Translational Sciences (NCATS), 2010)
Also: nearly all actives have a fitted effect of over 25% in size.
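For activity change, negative = inhibition in this document: 0% = no-compound wells and -100% = no-enzyme wells.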
Potency is read from the fitted curve at half-maximal effect; tags tell the direction and shape of the fitted curve.
